System: c-MYC G4-forming oligonucleotide Pu22
Assay: CD-thermal melt assay
Settings: equimolar compound and c-MYC G4 oligonucleotide; ellipticity at 262 nm; average of 4 trials ± standard deviation
Description: To assess the ability of Compound 1 to bind to the c-MYC G4 in solution, a CD-based thermal melt experiment was employed. […] Next, molecular ellipticity was monitored at 262 nm as a function of temperature in order to measure the melting temperature (Tm). Finally, a sample containing equimolar concentrations of Compound 1 and the c-MYC G4 oligonucleotide was evaluated in the same experiment. Molecules that productively bind to the G4-DNA stabilize the structure and therefore increase its Tm (Murat, et al., Chemical Society reviews 2011, 40, 5293). In the presence of Compound 1, the Tm of the G4-DNA increased by 2.1 (±0.5) ° C. (FIG. 2B).
Thermal stability of the c-MYC G4-forming oligonucleotide Pu22 ([…], SEQ ID NO: 2) in the absence and presence of compounds was recorded on an Aviv Biomedical Inc. Model 420 Circular Dichroism Spectrometer. The c-MYC G-quadruplex was diluted to 50 μM in 10 mM Tris buffer (pH 7.5, containing 100 mM KCl), heated to 95° C. for 5 min, and allowed to cool to room temperature. […] Molecular ellipticity as a function of temperature was used to calculate a Tm (the temperature at which 50% of the formed higher order DNA structure was melted) for each condition using GraphPad Prism 6 software and a nonlinear regression model with a variable slope. ΔTm values were calculated as Tm(+compound)−Tm(control).

For `Cc1ccc(NC(=O)c2c(C)oc3ccc(O)c(CN4CCCCCC4)c23)cc1` [Compound 1], the “increase of Tm of the G4-DNA” value was 2.1 (±0.5) ° C.
